14 molecules from article PMC12136788 can be followed below.

This is one part of the list.

T1: UNK ZnF1-3 (human, UniProt Q9C0B0 31-174)
T1 sequence: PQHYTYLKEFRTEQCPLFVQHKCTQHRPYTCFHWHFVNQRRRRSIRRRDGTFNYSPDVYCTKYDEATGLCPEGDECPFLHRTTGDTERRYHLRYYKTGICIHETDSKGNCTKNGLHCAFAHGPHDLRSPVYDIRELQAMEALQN

B1: chr5:64892317:64892318:-_ENSG00000113595_ENST00000231524|hu_hu|FALSE|FALSE (ssRNA)
RNA: GGGAGUUCUACAGUCCGACGAUCAGCUUGAGUAUUGAGGUAAUAAUGUUUCCACAAUGGUCUUAAUUUGUGUUUUCCACCUACAUCCCAAAUAGUGAAUUUUAGAUUUUUAUAUUCUACAGUUUCCACGUUAAAACCAAUUGUCAACAGAGGAUUGAGCAUCA
B2: chr19:16212804:16212805:+_ENSG00000167460_ENST00000300933|hu_mus|hu_hu_hu_mus_False|28_58 (ssRNA)
RNA: GGGAGUUCUACAGUCCGACGAUCAACAAUUCUGGAGUGAAGGAAAGAUGUAACAUGGAACAGCAUUAAAGCUCAGUAUUACUAUAUAUGGGCAACAAUGAUCACCCCCCAAGCAUUGCUUGGAAUGCUUAAAGACAAUCUGUUCAACAGAGGAUUGAGCAUCA
B3: 45823290_45823410_1853_3pUTR_ENSMUSG00000035551_ENSMUST00000044297|mouse|control|control (ssRNA)
RNA: GGGAGUUCUACAGUCCGACGAUCGAAACCCUGUCUCAAAAAACAAAAGCAAAAACAAAACCAAACCUAAAAGCGGGGAGAGGGCAGGAACCUGCUUUUCAGAAAGCUGAUAUUCUCCUGUUUAACUUUCCCCAUUAAGGCAGGCAACAGAGGAUUGAGCAUCA
B4: chr1:50642785:50642786:+_ENSG00000162374_ENST00000371827|hu_mus|motif|central (ssRNA)
RNA: GGGAGUUCUACAGUCCGACGAUCAGUGUUGAUGGCUUUCUCUGCAUCCUUUGGAUCAAUAUAGUUAACAAAUCCAUACCCGGAACUCUGUCCUGUGAUUUUGUCUCUCACGAGUUUGCAGGAUUCUAUUUCACCAAUGCUCCCCAACAGAGGAUUGAGCAUCA
B5: 5291315_5291435_1170_CDS_ENSG00000198081_ENST00000357006|human|control|control (ssRNA)
RNA: GGGAGUUCUACAGUCCGACGAUCUUUCUCAUGCUUCCUCAAUCUGCCUUCAUCAGAAAACGUCUUCCCACACGCCUGGCAGGCAAUCUGCUCCCGAUGGUGACCAUAAAGCAAAUACUCAAACUUCAUGUCACUGGCGGCUGUCAACAGAGGAUUGAGCAUCA
B6: 8611252_8611372_1238_CDS_ENSMUSG00000057880_ENSMUST00000065987|mouse|control|control (ssRNA)
RNA: GGGAGUUCUACAGUCCGACGAUCCUCCUCCUUGUGGAAGAAGCCCCCGGUCAUCAUUUUCUUGCUGAACGUCAUCACAUCGGCUGGGUCAUCCAAGCCCCAGUGUUCAUGGGCCCAGAACUUGCCUGUACAGCCUCCUCCGGUCAACAGAGGAUUGAGCAUCA
B7: chr12:28025581:28025582:-_ENSMUSG00000063632_ENSMUST00000079063|mus_hu|FALSE|FALSE (ssRNA)
RNA: GGGAGUUCUACAGUCCGACGAUCUCUCUUAAGAAAAAAAAAUAUCUCCACCAACUCCCUAGAGUAACAGUUGUGCUGCCAAAAGGGUCCUCUGCAGACGUCUUCCAGACUUCAAAGACCGACAAGCUUCAAACAGCGCCUUCCCAACAGAGGAUUGAGCAUCA
B8: chr6:114281168:114281169:-_ENSG00000196591_ENST00000368632|hu_hu|hu_hu_hu_mus_True|18_108 (ssRNA)
RNA: GGGAGUUCUACAGUCCGACGAUCUUCCAUUUUUCUGUAUAAACCAUAAUUUAGCAGCAAGUUAUGAGUCAUCCGGAUUCUAUGAGGCUUCAUGGGAUGACCCUGGCCAUAAUAAUAAUUUCCAAUAUCACCAUCAUAGUAGUACAACAGAGGAUUGAGCAUCA
B9: chr3:128532203:128532204:+_ENSG00000075785_ENST00000265062|hu_mus|FALSE|FALSE (ssRNA)
RNA: GGGAGUUCUACAGUCCGACGAUCACUGCAGCUUUCUGCGGAGGCCUUGGCCCGGUCAUUCUUGUCCAGUUUGAUGGGUUCAGGGAAUUCAUUGUACAGUUCCACUUCUGUUUCCUGUUUAAGGGCAUUCCGAGCAAUUGUCUGCAACAGAGGAUUGAGCAUCA
B10: chr16:32386223:32386224:+_ENSMUSG00000053774_ENSMUST00000115151|mus_mus|FALSE|FALSE (ssRNA)
RNA: GGGAGUUCUACAGUCCGACGAUCAAUACAAUUUGAAUGUGACUUUUGUUGGCAGAAAAAAAACCUCACAUCUGAAGAUUACUAGAAAUCUCUCUUAAUAACUGUUGUCGUAUGAACCAAAUUUGAAGGUCUUCCUCUUAGAGACAACAGAGGAUUGAGCAUCA
B11: chr7:44244176:44244177:+_ENSG00000106636_ENST00000223369|hu_mus|hu_hu_hu_mus_False|18_88 (ssRNA)
RNA: GGGAGUUCUACAGUCCGACGAUCACUGUCGCUCCGGACGUAGACAUGGCACAGAUACUCUUGUUCUUUGACAGAAGCUCUGCUGCCUUUCCCCGAGCGUUCCACAAUCAGUUGACUCGUGAAGGUCAUGAAUUCCUGCACACUCAACAGAGGAUUGAGCAUCA
B12: chr8:80578333:80578334:+_ENSG00000104435_ENST00000220876|hu_hu|FALSE|FALSE (ssRNA)
RNA: GGGAGUUCUACAGUCCGACGAUCAACUCCAAUUCUUUAUUAAUCACAGCUUGCUCACAAUGACAUACAGGAAAAUAGCACUAAUGAAGAGUAAAUAUGCAGGCAGCAACCUUCAGGAGUUGGGAGUUGGGGAGAAACGACUUCCAACAGAGGAUUGAGCAUCA
B13: chr3:176767854:176767855:-_ENSG00000177565_ENST00000430069|hu_hu|hu_hu_hu_mus_False|18_78 (ssRNA)
RNA: GGGAGUUCUACAGUCCGACGAUCGACAUCCUUGUUACUGGGCACGUCCUGCCCUCCUUCUCGUAUACAGUGUCUAAGCACGAGCUGCGUAGGGCCACUCGUGCUGUUCUCACUGAGAUUCCAUAUUCUUGCCGUGGAGUCUCCCAACAGAGGAUUGAGCAUCA
B14: 37380852_37383628_781_CDS_ENSG00000101442_ENST00000243903|human|control|control (ssRNA)
RNA: GGGAGUUCUACAGUCCGACGAUCAUAAUCAGGACACCGCCAUUUGUGUAAUUCUUCCACAUAAUCCUCAGCGAUGUAGCUGUGCUCAUGCAGAAUCUCCUCCAUGCGGCUGAGGGUGAUGGCUGCCAGGUGCCCAGGGUACUUCAACAGAGGAUUGAGCAUCA

The target in the assay is T1, UNK ZnF1-3. The experiment in a line: nsRBNS (natural sequence RNA bind-n-seq); RBNS binding buffer (assumed for nsRBNS): 25 mM Tris pH 7.5, 150 mM KCl, 3 mM MgCl2, 0.01% Triton X-100, 500 ug/ml BSA, 20 U/ml SUPERase-In, 4 C; UNK is unkempt and MSI1 is Musashi-1; names of the RNAs are library labels; protein concentration not given here; high values mean tight binding.
As for B1, the binding signal came to 1.01 enrichment R.
Regarding B2, the binding signal amounted to 1.09 enrichment R.
For the molecule B3, the binding signal is 0.633 enrichment R.
On to B4, for which the binding signal was 0.536 enrichment R.
Under B5 stands 1.09 enrichment R.
With B6 the figure was 0.925 enrichment R; with B7, 1.66 enrichment R; with B8, 1.06 enrichment R.
In the case of B9, the binding signal is 0.73 enrichment R.
B10 registered a binding signal of 0.927 enrichment R.
With B11 the figure was 0.463 enrichment R.
Regarding B12, the binding signal was found to be 1.87 enrichment R.
Take B13: the binding signal turned out to be 0.303 enrichment R.
B14 gave a binding signal of 0.885 enrichment R.
